Results reported in the supplement of paper PMC11417369.
± gives the standard deviation of the averaged measurements. This is one part of the list.

tested on: PfAP2-G AP2 domain (GST-tagged); assay: gcPBM binding intensity (ln(normalized median fluorescence intensity)); higher = stronger DNA binding
Procedure, shortened: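 GST-tagged P. falciparum DNA-binding domains produced in E. coli were incubated for 1 h on an Agilent 4 × 180k array of primer-extended double-stranded 36-bp intergenic genomic probes with negative controls. Binding intensity is the highest Masliner-normalised natural-log median intensity across replicate spots of either probe orientation, with bound protein detected by Alexa488 anti-GST antibody at 488 nm.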

Sequence | gcPBM binding intensity (ln)
AATATATTTTTCTACCGTACATAATAAAATATATAT [XGTACX_site1777] | 10.7 ± 0.46
TAATATTTTTATTATTAGAATTGTATATGTTTAATA [CACACA_negctrl_site1833] | 9.535 ± 0.064
CATATATCATAAATATGTACGAAATAAAAGAATCAT [XGTACX_site942] | 10.8 ± 0.39
TTTTCTAAAATATTCATAATAAATCAAAAAAAAAAA [GTGCAC_negctrl_site320] | 9.84 ± 0.33
ATAAAAGGAATATTTGCATGTGGTAGTACATAACAT [TGCATGCA_site978] | 11.5 ± 0.87
TGCGTATTCTTATTAGGTACACATATTCGTGATAAT [XGTACX_site5681] | 11.2 ± 0.88
TTTTCTTACTATTGTAGTACAATATTATATTCTTTT [XGTACX_site1925] | 11.5 ± 0.7
TATAAATATGTATATACACACTTTTAATATTCATAA [CACACA_site7856] | 9.825 ± 0.064
ATAGATGATATACGTAAACACACAAATAAAAAAAAT [CACACA_site9095] | 10.3 ± 0.28
TTTATTTTTCATAATTGTACAAAAATAAATGGAAAC [XGTACX_site5144] | 11.1 ± 0.81
TAATTTGAAAAATTGTGTACTCATAAAATAAATAAA [XGTACX_site2138] | 11.5 ± 1.1
GATTTATATATATAAAATAATTGAATATTTTCTTTT [CACACA_negctrl_site801] | 9.4 ± 0.38
ATAAAAAAATAAAACACACACATATAGATTATAGAT [CACACA_site7343] | 9.91 ± 0.042
TACAAATATAGACACACACACATATATATATATATA [CACACA_site585] | 10.2 ± 0.36
TTTATAATTCTTACAACACACAATGTACATTTATAT [CACACA_site1261] | 11.1 ± 0.56
TATATGAAGCTATAGACACACATATAAAAATAGAAT [CACACA_site1313] | 9.97 ± 0.11
AAATTAAAAAGAGCTTGTACAGATGTATACATAATA [XGTACX_site3882] | 10.8 ± 0.47
AAGAGAAAAATATGGTTGCACTAAAAATATATATTT | 10.2 ± 0.11
TACATACAGATATATACACACATATAAAATATAGAT [CACACA_site6319] | 9.93 ± 0.14
ATTATATATAAATATACACACATATATAAAATACAT [CACACA_site5298] | 9.985 ± 0.035
ATTCATATATTTATTGCATGCAAAGTAAAATAAATA [TGCATGCA_site307] | 10.1 ± 0.44
GACATATTAGAAGGGTGTACATACTTTTAATCATTT [XGTACX_site1698] | 11.3 ± 0.7
AATATTAAAATATAAACACACAAAATTCAATTATAT [CACACA_site5971] | 9.65 ± 0.23

Sequence | gcPBM binding intensity (ln)
TAAAAAATTAATAAAGTGCATAAATATTACAATATT | 9.76 ± 0.14
TTTTCTAAATATTATAGTACTCTTAATAATATTAAC [XGTACX_site4222] | 11.1 ± 0.72
TTAACAAAATATAGCACACATAAATATATATTTATG [CACACA_site351] | 10.3 ± 0.16
ACATAACTGATATATACACACAATACAAATATAGAT [CACACA_site7328] | 10.04 ± 0.049
AAATGTGCATTATGTTGTACAGTCGAAATTTTTTTT [XGTACX_site3812] | 11.2 ± 0.64
ATGAATAAATGAACATGTACATATATATATATATTA [XGTACX_site5005] | 11 ± 0.53
TACATATATATATGTATATATATATATATATAAATA [XGTACX_negctrl_site351] | 9.58 ± 0.16
AATAATAAAAAATACACACACATATATATATATTAC [CACACA_site3464] | 9.885 ± 0.064
TAAACATTGTAAAGGAGTACAAAATTTTTTTTATGA [XGTACX_site7757] | 11.4 ± 0.96
TTTTTTTCATATAACACACACACAAAAATAATGTGG [CACACA_site3688] | 10.2 ± 0.16
CATACACAAGAAAATTCACACACACCCATATATATA [CACACA_site9288] | 9.94 ± 0.15
TCTTACAAAAAACAAACAGAGAAAAATATAAGGAAA [XGTACX_negctrl_site520] | 9.81 ± 0.14
AACATACAGAAACACACACACACACCCACACCCACA [CACACA_site493] | 10.4 ± 0.31
TTTTTTTTTTTGTATCGTACATTTATAATGTTTATA [XGTACX_site6804] | 10.6 ± 0.47
AAGTTAACAATATGAAGTACAAATGAAAAAAAAAAA [XGTACX_site666] | 11.2 ± 0.84
ATATATATATATCATAGTACACATATGTGTCTCGTG [XGTACX_site774] | 11.1 ± 0.66
TTGTTATAGAAGCATTCACACACACCCATACATACA [CACACA_site8414] | 10.5 ± 0.42
AATATCATTATATAAGTGCATTTTTTAAAAGATAAA [GTGCAC_site9479] | 9.855 ± 0.049
TTAATAGGTCGAAGTAGTACATAAAAATATATATAT [XGTACX_site5960] | 11.4 ± 0.98
ATATATATTTATTTATGTACGAATAAATTTACGAAT [XGTACX_site5190] | 11.1 ± 0.8
TATATACCACATTGTTGTACGACACATTTACATTTT [XGTACX_site8370] | 11.4 ± 0.67
TCAAAGCACAGATACACACACATATATATATATATA [CACACA_site287] | 10 ± 0.19
